Laboratory results from PubChem BioAssay (Tox21).
“And” between values parts separate entries of the source, which are not always exact repeats. Identical values can stand only once. The inconclusive results got no clear call from the source; some entries with a clear call stand among them for comparison. For some assays here: Potencies beside an inconclusive call are fits to weak or partial responses and may not hold up. The source made the active and inactive calls. Unless noted, calls follow the shape of the dose curve; as a rule, active = well fitted curve in the direction sought with a large enough effect in the repeat runs; inconclusive = weak or mixed curves; inactive = no such curve, though single readings can be large; an effect the other way counts as inactive or inconclusive.

How the values were obtained:
[1] = qHTS assay to identify small molecule that activate the aryl hydrocarbon receptor (AhR) signaling pathway - cell viability counter screen (AID 743086); also: nearly all actives have a fitted effect of over 45% in size; also: potency is read from the fitted curve at half-maximal effect
In short: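 Cytotoxicity counter screen: CellTiter-Fluor signal (30 min, 37 C) in 4000 HepG2 cells/well carrying the DRE-luciferase reporter, following 24 h compound exposure at 37 C.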

[2] = target: Peroxisome proliferator-activated receptor gamma (Homo sapiens) (UniProt P37231); test: qHTS assay to identify small molecule agonists of the peroxisome proliferator-activated receptor gamma (PPARg) signaling pathway (AID 743094; active = well fitted activation curve with a large enough effect in the signal ratio in the repeat runs, not every such curve was filed as active; inconclusive = weak or mixed curves, or effect the other way; inactive = no such curve, though single readings can be large or run the other way; the % refers to the signal ratio; also: potency is read from the fitted curve at half-maximal effect); settings: HEK293H PPARg-UAS-bla, beta-lactamase FRET ratio, 17 h; activation: at 57 µM (top of the series) unless noted
In short: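 Compounds dissolved in DMSO were added to PPARg UAS-bla HEK293H cells for 17 h at 37C, and reporter expression was quantified by fluorescence intensity after 1 h with LiveBLAzer B/G FRET substrate.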

[3] = qHTS assay for small molecule agonists of the antioxidant response element (ARE) signaling pathway (AID 743202; active = well fitted activation curve with a large enough effect in the signal ratio in the repeat runs, not every such curve was filed as active; inconclusive = weak or mixed curves, or effect the other way; inactive = no such curve, though single readings can be large or run the other way; the % refers to the signal ratio; also: potency is read from the fitted curve at half-maximal effect); settings: HepG2 ARE-bla reporter, beta-lactamase FRET, 16 h; activation: at 73.3 µM (top of the series) unless noted
In short: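 Quantitative high-throughput format in HepG2 cells bearing an integrated ARE-beta-lactamase reporter. Compound exposure lasted 16 h at 37 C, and fluorescence was read 2 h after adding LiveBLAzer B/G substrate at room temperature.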

[4] = qHTS assay for small molecule agonists of the antioxidant response element (ARE) signaling pathway - cell viability counter screen (AID 743203; calls by dose curve; also: potency is read from the fitted curve at half-maximal effect; nearly all actives have a fitted effect of over 55% in size); settings: ARE-bla HepG2 viability, CellTiter-Glo luminescence, 16 h; viability change, negative = cytotoxic: at 73.3 µM (top of the series)
In short: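 Following 16 hrs of compound treatment at 37C, HepG2 cells with an ARE-controlled beta-lactamase gene were lysed with CellTiter-Glo. Luminescence was read after 30 min at room temperature.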

[5] = qHTS assay for small molecule activators of the heat shock response signaling pathway - cell viability counter screen (AID 743209); settings: HSE-bla HeLa viability, CellTiter-Glo luminescence, 5 h; activity change, negative = cytotoxicity: at 62.6 µM (top of the series); also: potency is read from the fitted curve at half-maximal effect; nearly all actives have a fitted effect of over 50% in size
In short: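 Readout: CellTiter-Glo luminescence, 30 min at room temperature. System: HSE-bla HeLa cells, 1500/well, plated overnight. Treatment: compounds in DMSO, 5 h at 37 C.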

[6] = qHTS assay to identify small molecule agonists of the peroxisome proliferator-activated receptor delta (PPARd) signaling pathway - cell viability counter screen (AID 743211); settings: PPARd-bla HEK293H viability, CellTiter-Glo luminescence, 17 h; activity change, negative = cytotoxicity: at 62.6 µM (top of the series); also: nearly all actives have a fitted effect of over 55% in size; also: potency is read from the fitted curve at half-maximal effect
In short: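 Read-out: CellTiter-Glo luminescence, 30 min RT, measured in the same wells as the beta-lactamase reporter. Cells: GeneBLAzer PPAR delta UAS-bla HEK293H, 3000 cells/well, compound exposure 17 h at 37C.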

[7] = target: Peroxisome proliferator-activated receptor delta (Homo sapiens) (UniProt Q03181); test: qHTS assay to identify small molecule agonists of the peroxisome proliferator-activated receptor delta (PPARd) signaling pathway (AID 743212; calls by dose curve; also: potency is read from the fitted curve at half-maximal effect; as to activation: % is scaled to controls: 0 for no effect and ±100 for the full control effect); settings: HEK293H PPARd-UAS-bla, beta-lactamase FRET ratio, 17 h; activation: at 62.6 µM (top of the series) unless noted
In short: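 HEK293H PPARd-bla cells; 5 h preincubation 37 C/5% CO2; compound (DMSO) 37 C; LiveBLAzer B/G FRET substrate 2 h RT; fluorescence intensity.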

[8] = target: Peroxisome proliferator-activated receptor delta (Homo sapiens) (UniProt Q03181); test: qHTS assay to identify small molecule antagonists of the peroxisome proliferator-activated receptor delta (PPARd) signaling pathway (AID 743215; active = well fitted inhibition curve with a large enough effect in the signal ratio in the repeat runs, not every such curve was filed as active; inconclusive = weak or mixed curves, or effect the other way; inactive = no such curve, though single readings can be large or run the other way; the % refers to the signal ratio; also: potency is read from the fitted curve at half-maximal effect; as to ratio activity, negative = inhibition: % is scaled to controls: 0 for no effect and ±100 for the full control effect); settings: HEK293H PPARd-UAS-bla, beta-lactamase FRET ratio, antagonist, 17 h; ratio activity, negative = inhibition: at 62 µM (top of the series) unless noted
In short: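 HEK293H UAS-bla, PPARd; agonist L165041 300 nM final with cpd in DMSO; 37 C 17 h; FRET substrate, RT 2 h; fluorescence intensity.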

[9] = qHTS assay to identify small molecule antagonists of the farnesoid-X-receptor (FXR) signaling pathway - cell viability counter screen (AID 743221; active = well fitted cell-killing curve with a large enough effect in the repeat runs, not every such curve was filed as active; inconclusive = weak or mixed curves, or effect the other way; inactive = no such curve, though single readings can be large or run the other way; also: potency is read from the fitted curve at half-maximal effect; nearly all actives have a fitted effect of over 50% in size); settings: FXR-bla HEK293T viability, CellTiter-Glo luminescence, 16 h; activity change, negative = cytotoxicity: at 62.6 µM (top of the series)
In short: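 HEK 293T FXR-bla cells, 5 h pre-incubation; compound + CDCA 50 uM final, 16 h, 37 C; beta-lactamase FRET read first, then CellTiter-Glo luminescence, 30 min RT.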

[10] = target: Peroxisome proliferator-activated receptor gamma (Homo sapiens) (UniProt P37231); test: qHTS assay to identify small molecule antagonists of the peroxisome proliferator-activated receptor gamma (PPARg) signaling pathway (AID 743191; calls by dose curve; also: % is scaled to controls: 0 for no effect and ±100 for the full control effect; nearly all actives have a fitted effect of over 30% in size); settings: HEK293H PPARg-UAS-bla, beta-lactamase ratio, antagonist, 17 h; ratio activity, negative = inhibition: at 62.6 µM (top of the series) unless noted
In short: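 Beta-lactamase reporter under UAS control in HEK293H PPARg-bla cells; compound treatment 17 h at 37C. Read-out: fluorescence intensity after 1 h room-temperature incubation with LiveBLAzer B/G FRET substrate.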

[11] = target: Bile acid receptor (Homo sapiens) (UniProt Q96RI1); test: qHTS assay to identify small molecule antagonists of the farnesoid-X-receptor (FXR) signaling pathway (AID 743217; active = well fitted inhibition curve with a large enough effect in the signal ratio in the repeat runs, not every such curve was filed as active; inconclusive = weak or mixed curves, or effect the other way; inactive = no such curve, though single readings can be large or run the other way; the % refers to the signal ratio; also: potency is read from the fitted curve at half-maximal effect); settings: HEK293T FXR-UAS-bla, beta-lactamase ratio, CDCA-stimulated, 16 h; activity change, negative = inhibition: at 62.6 µM (top of the series) unless noted
In short: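 GeneBLAzer FXR-UAS-bla HEK 293T, CDCA-stimulated (50 uM final). Compound treatment 16 h, 37 °C. Detection: beta-lactamase cleavage of B/G FRET substrate, fluorescence.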

[12] = qHTS assay to identify small molecule agonists of the farnesoid-X-receptor (FXR) signaling pathway - cell viability counter screen (AID 743218); settings: FXR-bla HEK293T viability, CellTiter-Glo luminescence, 16 h; viability change, negative = cytotoxic: at 62.6 µM (top of the series) unless noted; also: nearly all actives have a fitted effect of over 45% in size; also: potency is read from the fitted curve at half-maximal effect
In short: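 Parallel cytotoxicity test: compound-treated (16 h, 37 C) HEK 293T FXR-bla reporter cells were lysed with CellTiter-Glo and luminescence recorded.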

[13] = target: Bile acid receptor (Homo sapiens) (UniProt Q96RI1); test: qHTS assay to identify small molecule agonists of the farnesoid-X-receptor (FXR) signaling pathway (AID 743220; active = well fitted activation curve with a large enough effect in the signal ratio in the repeat runs, not every such curve was filed as active; inconclusive = weak or mixed curves, or effect the other way; the % refers to the signal ratio; also: % is scaled to controls: 0 for no effect and ±100 for the full control effect); settings: HEK293T FXR-UAS-bla, beta-lactamase FRET ratio, 16 h; activation: at 62.6 µM (top of the series) unless noted
In short: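 Beta-lactamase reporter under UAS control in GeneBLAzer FXR HEK 293T cells (5000/well) measured with LiveBLAzer FRET substrate after 2 h at room temperature. Compound exposure lasted 16 h at 37C.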

[14] = target: Vitamin D3 receptor (Homo sapiens) (UniProt P11473); test: qHTS assay to identify small molecule antagonists of the vitamin D receptor (VDR) signaling pathway (AID 743223; active = well fitted inhibition curve with a large enough effect in the signal ratio in the repeat runs, not every such curve was filed as active; inconclusive = weak or mixed curves, or effect the other way; inactive = no such curve, though single readings can be large or run the other way; the % refers to the signal ratio; also: potency is read from the fitted curve at half-maximal effect; as to activity change, negative = inhibition: % is scaled to controls: 0 for no effect and ±100 for the full control effect); settings: VDR-UAS-bla HEK293T, beta-lactamase FRET ratio, 16 h; activity change, negative = inhibition: at 61 µM (top of the series) unless noted
In short: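 Beta-lactamase reporter read-out: FRET substrate fluorescence after 2 h at room temperature, following 16 h exposure of VDR-bla cells to test compound plus 3 nM (final) 1alpha,25-dihydroxyvitamin D3 agonist at 37C.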

[15] = target: Vitamin D3 receptor (Homo sapiens) (UniProt P11473); test: qHTS assay to identify small molecule agonists of the vitamin D receptor (VDR) signaling pathway (AID 743222; calls by dose curve; also: potency is read from the fitted curve at half-maximal effect); settings: HEK293T VDR-UAS-bla, beta-lactamase FRET ratio, 16 h; activation: at 63.5 µM (top of the series) unless noted
In short: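 In VDR-bla cells, compound-induced beta-lactamase expression is quantified by FRET substrate fluorescence. Treatment lasts 16 h at 37C; substrate develops 2 h at room temperature.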

[16] = qHTS assay for small molecule activators of the heat shock response signaling pathway (AID 743210; active = well fitted activation curve with a large enough effect in the signal ratio in the repeat runs, with a control signal flat, not every such curve was filed as active; inconclusive = weak or mixed curves; the % refers to the signal ratio; also: potency is read from the fitted curve at half-maximal effect); settings: HeLa HSE-bla reporter, beta-lactamase ratio, 5 h; activation: at 62.6 µM (top of the series)
In short: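 HeLa HSE-bla cells, overnight plating; cpd in DMSO 5 h, 37 C; LiveBLAzer B/G FRET substrate 2.5 h RT; fluorescence intensity read.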

[17] = qHTS assay to identify small molecule antagonists of the peroxisome proliferator-activated receptor delta (PPARd) signaling pathway - cell viability counter screen (AID 743213); settings: PPARd-bla HEK293H viability, CellTiter-Glo luminescence, 17 h; viability change, negative = cytotoxic: at 62 µM (top of the series) unless noted; also: potency is read from the fitted curve at half-maximal effect; nearly all actives have a fitted effect of over 50% in size
In short: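 Agonist-stimulated (L165041, 300 nM final) HEK293H PPARd UAS-bla cells are exposed to compounds for 17 h at 37 C, and ATP-based luminescence (CellTiter-Glo) from the same wells reports cytotoxicity.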
Tags tell the direction and shape of the fitted curve or compound fluorescence and quenching.

UniProt P11473, sequence (P11473 whole entry, looked up): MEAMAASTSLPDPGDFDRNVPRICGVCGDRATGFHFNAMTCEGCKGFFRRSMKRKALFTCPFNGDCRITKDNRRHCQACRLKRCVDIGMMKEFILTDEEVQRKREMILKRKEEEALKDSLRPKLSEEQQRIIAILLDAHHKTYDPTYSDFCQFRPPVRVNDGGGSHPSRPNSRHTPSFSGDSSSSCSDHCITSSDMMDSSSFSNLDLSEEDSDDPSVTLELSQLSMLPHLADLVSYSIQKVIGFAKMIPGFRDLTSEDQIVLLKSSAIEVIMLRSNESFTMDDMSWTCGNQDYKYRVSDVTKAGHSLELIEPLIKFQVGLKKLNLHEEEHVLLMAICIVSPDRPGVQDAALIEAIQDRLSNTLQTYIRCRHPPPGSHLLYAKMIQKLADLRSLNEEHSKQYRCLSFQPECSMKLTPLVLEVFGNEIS
UniProt Q96RI1, sequence (Q96RI1 whole entry, looked up): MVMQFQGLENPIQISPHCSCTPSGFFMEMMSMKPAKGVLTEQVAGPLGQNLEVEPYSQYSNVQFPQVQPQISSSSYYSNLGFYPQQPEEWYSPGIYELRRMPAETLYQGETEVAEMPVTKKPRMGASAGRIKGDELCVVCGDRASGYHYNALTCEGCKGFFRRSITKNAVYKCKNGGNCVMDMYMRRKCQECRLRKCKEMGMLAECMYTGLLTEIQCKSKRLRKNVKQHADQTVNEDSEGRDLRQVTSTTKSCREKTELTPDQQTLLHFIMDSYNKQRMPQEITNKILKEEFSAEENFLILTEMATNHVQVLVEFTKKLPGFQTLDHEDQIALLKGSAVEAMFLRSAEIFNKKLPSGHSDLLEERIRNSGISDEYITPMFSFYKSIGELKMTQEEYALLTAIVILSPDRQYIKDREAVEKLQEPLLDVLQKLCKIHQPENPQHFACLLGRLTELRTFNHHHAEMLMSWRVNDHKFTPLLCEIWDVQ
UniProt Q03181, sequence (Q03181 whole entry, looked up): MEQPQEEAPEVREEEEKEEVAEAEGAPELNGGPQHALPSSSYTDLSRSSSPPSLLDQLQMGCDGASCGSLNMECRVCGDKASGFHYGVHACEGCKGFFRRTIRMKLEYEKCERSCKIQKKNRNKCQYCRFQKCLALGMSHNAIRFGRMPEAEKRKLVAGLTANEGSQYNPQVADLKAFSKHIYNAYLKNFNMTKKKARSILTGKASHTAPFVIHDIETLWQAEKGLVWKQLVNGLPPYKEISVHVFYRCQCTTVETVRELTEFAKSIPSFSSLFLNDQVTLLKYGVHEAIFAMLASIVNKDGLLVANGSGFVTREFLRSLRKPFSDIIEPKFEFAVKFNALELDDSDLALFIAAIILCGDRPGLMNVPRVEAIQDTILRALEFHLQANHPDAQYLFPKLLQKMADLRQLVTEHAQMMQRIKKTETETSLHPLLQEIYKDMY
UniProt P37231, sequence (P37231 whole entry, looked up): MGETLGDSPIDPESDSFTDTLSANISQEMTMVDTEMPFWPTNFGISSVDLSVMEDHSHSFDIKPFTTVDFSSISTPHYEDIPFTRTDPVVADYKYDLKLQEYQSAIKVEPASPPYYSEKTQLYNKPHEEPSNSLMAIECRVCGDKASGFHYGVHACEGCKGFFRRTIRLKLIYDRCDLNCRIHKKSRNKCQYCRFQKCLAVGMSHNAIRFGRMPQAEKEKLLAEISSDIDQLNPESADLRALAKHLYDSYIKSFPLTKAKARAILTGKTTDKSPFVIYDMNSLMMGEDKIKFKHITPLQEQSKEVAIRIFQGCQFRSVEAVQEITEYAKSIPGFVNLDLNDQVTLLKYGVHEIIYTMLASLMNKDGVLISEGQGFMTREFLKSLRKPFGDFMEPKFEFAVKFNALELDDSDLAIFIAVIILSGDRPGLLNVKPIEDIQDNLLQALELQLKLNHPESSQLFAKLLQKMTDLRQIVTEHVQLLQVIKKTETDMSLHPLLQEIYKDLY

Cc1cc(O)c2c(c1)C(=O)c1cc(O)cc(O)c1C2=O
Potency [1]: inconclusive: 3.36 µM [falling, full curve]
Potency [2]: inconclusive: 8.51 µM [inhibitor, partial curve, poor fit]
Potency [3]: active: 4.23 µM and inconclusive: 9.69 µM
Potency [4]: active: 23.8 µM and inconclusive: 77 µM [cytotoxic, single point]
Potency [5]: inconclusive: 24.5 µM [rising, partial curve, poor fit]
Potency [6]: inconclusive: 30.2 µM [cytotoxic, single point] and inconclusive: 11 µM [cytotoxic, partial curve, poor fit]
activation [7]: inconclusive: -7.79% and inconclusive: -2.34%
ratio activity, negative = inhibition [8]: inconclusive: -102% and inconclusive: 23.9%
Potency [9]: inconclusive: 26.9 µM [falling, single point]

COc1ccc2cc1Oc1ccc(cc1)C[C@H]1c3c(cc4c(c3Oc3cc5c(cc3OC)CCN(C)[C@@H]5C2)OCO4)CCN1C
Potency [1]: inconclusive: 10.6 µM [falling, full curve]
ratio activity, negative = inhibition [10]: inconclusive: -34.2%
Potency [3]: inconclusive: 4.73 µM [rising, full curve, poor fit]
Potency [6]: active: 29.8 µM
Potency [7]: inconclusive: 13.3 µM
Potency [8]: inconclusive: 13.3 µM [rising, partial curve]
Potency [11]: inconclusive: 29.8 µM [rising, single point]
Potency [12]: active: 18.8 µM
Potency [13]: inactive
activity change, negative = inhibition [14]: inconclusive: -52.1%

CC(C)CC(C)(C)C
Potency [1]: inactive
Potency [2]: inactive
ratio activity, negative = inhibition [10]: inconclusive: 3.02% [at 81.1 µM]
Potency [3]: inactive
Potency [8]: inactive

CSc1ccc(/C=C2/C(C)=C(CC(=O)O)c3cc(F)ccc32)cc1
Potency [1]: inconclusive: 29.8 µM [falling, single point]
Potency [3]: inconclusive: 23.7 µM [rising, single point]
Potency [6]: inconclusive: 16.8 µM [cytotoxic, partial curve, poor fit]
Potency [7]: inconclusive: 1.5 µM [rising, full curve]
Potency [8]: inconclusive: 33.5 µM [rising, single point]
activity change, negative = inhibition [11]: inconclusive: -0.523%
viability change, negative = cytotoxic [12]: inconclusive: -36% [cytotoxic]
Potency [15]: inconclusive: 15 µM [rising, partial curve]
Potency [14]: inconclusive: 8.49 µM [fluorescent, partial curve, poor fit]

CCC1OCC(COc2ccc(Oc3ccccc3)cc2)O1 (stereo unspecified)
Potency [1]: inactive
Potency [2]: inactive
Potency [3]: active: 61.1 µM
Potency [5]: inconclusive: 61.6 µM [cytotoxic, partial curve, poor fit]
Potency [16]: inconclusive: 58.2 µM
Potency [6]: inactive
Potency [17]: inconclusive: 61.6 µM [cytotoxic, single point]
Potency [12]: inconclusive: 19.5 µM [rising, partial curve]
